Measurements from PubChem BioAssay AID1346428 (National Center for Advancing Translational Sciences (NCATS), 2018).
Where “and” joins values, the source holds several entries; their conditions need not be identical. Equal entries are not always repeated. In all, about 48,000 compounds went through this assay and about 1,200 (2.5%) were called active. Not shown: some 2% with an inconclusive outcome.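 Rule for the calls: active = activation of at least 60% and not above a set upper limit (about 1 call in 100 departs from these limits); inconclusive = activation of 40% to 60%, or above that upper limit; inactive = activation under 40%.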 Some of the results follow.

What follows are compounds tested against Probable G-protein coupled receptor 32 (Homo sapiens) (UniProt O75388) (assay: qHTS for Agonists of Human Resolvin D1 Receptor DRV1). Details: CHO-K1 GPR32 beta-arrestin PathHunter luminescence, 90 min; at 76.9 µM; stronger effect = higher value; zero percent set by DMSO-only wells.
Method in brief: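 GPR32 activation in stably transfected CHO-K1 cells, detected as beta-arrestin recruitment by enzyme-fragment complementation. Compound exposure: 90 min, 37 °C.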
Note: 0% is about no effect.

Sequence of UniProt O75388 (O75388 whole entry, looked up, the tested form may be a part): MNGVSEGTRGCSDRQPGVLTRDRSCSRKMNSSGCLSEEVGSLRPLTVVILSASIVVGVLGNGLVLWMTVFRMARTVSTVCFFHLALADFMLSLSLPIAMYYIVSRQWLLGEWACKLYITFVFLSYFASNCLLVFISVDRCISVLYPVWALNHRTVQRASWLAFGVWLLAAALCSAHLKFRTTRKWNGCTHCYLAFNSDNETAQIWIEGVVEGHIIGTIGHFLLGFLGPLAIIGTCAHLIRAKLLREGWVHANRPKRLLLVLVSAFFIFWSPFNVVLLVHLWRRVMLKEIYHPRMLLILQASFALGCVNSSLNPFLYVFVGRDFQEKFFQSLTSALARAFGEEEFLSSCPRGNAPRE

activation, inactive:
COc1cc2nc(NCc3ccc(C)cc3)n3nc(-c4ccccc4)nc3c2cc1OC -2.79%
Cc1ccc(NC(=O)CSc2nc3ccccc3nc2N2CCOCC2)cc1 -14.1%
CCOc1ccccc1NC(=O)Cn1c(=O)ccc2cc(S(=O)(=O)N3CCCC3)ccc21 0.541%
CC(=O)N1CCc2nc3sc(C(=O)Nc4ccc(Cl)cc4F)c(N)c3c(C(F)(F)F)c2C1 -2.66%
CC(Oc1ccccc1)C(=O)Nc1nnc2n1CCS2 (stereo not drawn) -22.7%
COc1cc(-c2nc3nc(C)cc(C)n3c2Nc2ccc(Cl)cc2)ccc1O -26.3%
O=C(c1cc2ccc3cccnc3c2[nH]1)N1CCN(c2ccccc2)CC1 -21%
COC(=O)c1cccc(-n2c(CCC(=O)O)ccc2-c2cccs2)c1 -6.34%
CCOC(=O)c1ccc2ncc3c(-c4ccccc4)nn(-c4ccc(F)c(Cl)c4)c3c2c1 -0.211%
CC(C)c1nc2ccc(C(=O)NC(C)c3ccccc3)cc2o1 (stereo not drawn) 21.4%
O=C(NC1CCCC1)c1ccc(CSc2nc3cccnc3n2Cc2ccc(F)cc2)cc1 -3.89%
CCc1ccccc1N1CC(c2nc3ccccc3n2CCCCOc2ccccc2)CC1=O (stereo not drawn) 28.6%
COc1cccc(/C=C/C(=O)Nc2ccc3nc(N4CCN(C)CC4)cc(C)c3c2)c1OC -11.5%
CCCn1c2ccccc2c2cnn(CC(=O)N(CCCOC)Cc3ccco3)c(=O)c21 46.7%
Oc1ccccc1-c1nc(/C=C/c2ccc(F)cc2)nn1-c1ccccc1 -29.6%
CC(=O)c1ccc(N2CCN(S(=O)(=O)c3ccc4c(c3)C(C)(C)C(=O)N4)CC2)cc1 -6.45%
CCOc1ccc(NC(=O)CSc2ncc3c(n2)-c2ccccc2N(Cc2ccccc2C)S3(=O)=O)cc1 -7.38%
CCOCCCNc1ncnc2onc(C)c12 1.39%
Cc1ccc(Cl)cc1N1CCN(S(=O)(=O)c2ccc3c(c2)CC(C)N3C(=O)C2CCC2)CC1 (stereo not drawn) -0.305%
CC(=O)c1ccc(NC(=O)c2sc(-n3nc(C)c(Cc4ccccc4)c3C)nc2C)cc1 -13.3%
Cc1cccc(NC(=O)Nc2nnc(N(C)Cc3ccccc3)s2)c1 -9.62%
COc1ccc(-c2nn3c(-c4ccccc4C)nnc3c3ccccc23)cc1 -30.1%
CN(C(=O)Cn1cc(S(=O)(=O)Cc2ccccc2Cl)c2ccccc21)c1ccccc1 -18.3%
Cn1c(=O)c2c(ncn2CC(=O)Nc2cccc(Cl)c2Cl)n(C)c1=O 5.48%
COc1cccc(Cn2c(CNC(=O)c3cc([N+](=O)[O-])ccc3Cl)nc3cccnc32)c1 -7.31%
Cc1ccccc1C(=O)NC1(C(F)(F)F)C(=O)Nc2c1c(=O)[nH]c(=O)n2-c1ccc(F)cc1 (stereo not drawn) 0.436%
CCN(Cc1ccccc1)Cc1c(O)ccc2c(=O)c(-c3ccc(Cl)cc3Cl)coc12 -6.2%
Cc1noc(/C=C/c2cccs2)c1S(=O)(=O)N1CCC(C(=O)NCc2ccccc2Cl)CC1 -21.1%
CCCCNC(=O)CCCn1c(=O)c2ccccc2n(CC(=O)Nc2ccccc2OCC)c1=O -9.62%
CCOc1ccccc1NC(=O)c1ccc(F)c(S(=O)(=O)NCc2ccc3c(c2)OCO3)c1 -11.9%
COc1cc(/C=C(\C#N)c2nc3ccccc3[nH]2)ccc1OCc1cccc(C(F)(F)F)c1 16.6%
CCCc1cnc2c(c1SCC(=O)Nc1ccc(C)c(Cl)c1)c(=O)n(C)c(=O)n2C -11.4%
CCOc1ccccc1NC(=O)N1CCc2c(sc(C)c2CC)C1c1ccccc1 (stereo not drawn) 20.4%
COc1ccc(CNc2ncnc3onc(-c4ccc(F)cc4)c23)cc1 23.7%
CC1CCc2c(sc(NC(=O)C3c4ccccc4Oc4ccccc43)c2C(=O)OC(C)C)C1 (stereo not drawn) -24.8%
CCOC(=O)c1scc(-c2ccccc2)c1S(=O)(=O)Nc1cc(Cl)c(OC)cc1OC -68%
COc1ccc(Nc2nc(N)c3cc(OC)c(OC)cc3n2)cc1 -3.44%
Brc1c(NC2=NCCN2)ccc2nccnc12 49.4% and 41.5%
O=C(Cc1ccccc1)NCCc1csc2nc(-c3ccc(Cl)cc3)nn12 -3.72%
COc1cccc(CNC(=O)c2nn(-c3ccc(C)cc3)c(=O)c3c2c2ccccc2n3C)c1 -8.55%
COC(=O)c1ccc(CSc2nc3c([nH]c4ccccc43)c(=O)n2-c2ccc(OC)cc2)o1 5.81%
COc1ccc(CNC(=O)c2c3c(nc4ccccc24)C(=O)N(C2CCCCC2)C3)cc1 -28.9%
CCOC(=O)c1oc2ccc(S(=O)(=O)n3nc(-c4ccc(Br)cc4)cc3N)cc2c1C -1.62%
Cc1ccc(-n2nc(C)c3c(C(=O)NCc4ccccc4)cc(C4CC4)nc32)cc1 -14%
COc1ccccc1CNS(=O)(=O)c1ccc2c(c1)NC(=O)CC(=O)N2 3.3%
COc1ccccc1Nc1nn2c(=O)c3ccc(C(=O)N4CCCC(C)C4)cc3nc2s1 (stereo not drawn) 11.6%
COc1ccc(C2CC(=O)N(Cc3cccc(F)c3)c3ccccc3S2)cc1 (stereo not drawn) 3.49%
Cc1ccc(S(=O)(=O)NCc2nc(-c3cccc(C)c3)no2)cc1 2.9%
CCn1cc(C(=O)NCc2ccccc2Cl)c(=O)c2cc(S(=O)(=O)N3CCc4ccccc4C3)ccc21 -7.22%
CCOC(=O)c1sc(NC(=O)C2c3ccccc3Oc3ccccc32)c(C(=O)OCC)c1C -0.307%
CCOC(=O)c1cccnc1 11.4%
COCCCNC(=O)c1ccc2c(c1)N(Cc1ccccc1)C(=O)c1ccccc1S2 -23.1%
O=C(CSc1nc(=O)n(CCN2CCOCC2)c2c1CCC2)Nc1ccccc1 -9.99%
COc1ccccc1CNC(=O)CCCn1c(=O)c2ccccc2n(CC(=O)Nc2c(C)cc(C)cc2C)c1=O 23.4%
CN(C)CCOC(=O)COc1ccc(Cl)cc1 -11.1% and -2.37%
COc1ccc(C(=O)Nc2nnc(S(=O)(=O)N(CC(C)C)c3ccc(C)cc3)s2)cc1OC 4.59%
Cc1ccc2c(c1)N(C(=O)CCC(=O)NCc1ccccc1Cl)CC(C)O2 (stereo not drawn) -15.2%
O=C(Nc1ccc(S(=O)(=O)Nc2ncccn2)cc1)c1ccccc1Cl -13.4%
O=C(Nc1cc(C(F)(F)F)ccc1Cl)c1cc(-c2ccc3c(c2)OCCO3)on1 8.37%
COC(=O)c1cccnc1-n1c(=O)c2cccnc2n(CC(=O)Nc2ccc(C)cc2C)c1=O -8.35%
CC(=O)c1ccc(NC(=O)COc2ccccc2-c2nc(-c3cccc(C)c3)no2)cc1 -3.44%
COc1ccc(NC(=O)CSc2nnc(NC(=O)Nc3ccccc3)s2)cc1OC 5.52%
CC(NC(=O)Cn1c(=O)oc2cc(S(=O)(=O)NCc3ccccc3)ccc21)c1ccccc1 (stereo not drawn) 8.78%
COc1ccc(-c2cn3cccnc3n2)cc1NC(=O)Nc1ccc(Cl)cc1 -8.11%
O=C(Nc1ccc(S(=O)(=O)Nc2ncccn2)cc1)c1cc(=O)c2ccccc2o1 -3.68%
Cc1ccc(C(=O)c2oc3ccccc3c2NC(=O)COc2ccc(C(C)C)cc2)cc1 -4.15%
O=C(CC1C(=O)N(c2ccccc2)C(=O)N1Cc1ccc(F)cc1)Nc1cccc(F)c1 (stereo not drawn) -15.5%
CCN(CC)C(=O)Cn1c(=O)cc(C)c2c(C)nn(-c3ccc(C)cc3)c21 38.1%
COc1ccc(-c2cc(-c3ccccc3)nc3c2COc2ccc(F)cc2-3)cc1 7.72%
CC(C)c1nn2c(=O)cc(COC(=O)c3ccc(NC(=O)C4CCCCC4)cc3)nc2s1 -11%
Cc1ccc(CSc2ncc(Cl)c(C(=O)NCc3ccccc3)n2)cc1 -28.2%
Cc1ccc(S(=O)(=O)N2CCCc3cc(NS(=O)(=O)c4cc(C)ccc4C)ccc32)cc1 -16.6%
COc1ccc2[nH]c3c(c2c1)CCN(C(=O)c1cccc(Cl)c1)C3c1ccc(F)cc1 (stereo not drawn) -1.79%
CCOc1ccc(-c2c(C)nn3c(C)c(C(=O)NCCc4ccc(Cl)cc4)cnc23)cc1OCC -0.837%
COC(=O)c1ccccc1NC(=O)c1cc2cc(C)ccc2n1C -0.33%
O=C(Cn1c(=O)n(-c2ccc(Cl)cc2)c(=O)c2sc3ccccc3c21)NC1CCCC1 29.5%
Cc1ccc(S(=O)(=O)Cc2ccc(C(=O)N3CCN(c4cccc(Cl)c4)CC3)o2)cc1 46.7%
Cc1ccccc1OCC(=O)Nc1cccc(C(=O)OCc2cc(=O)n3c(C)csc3n2)c1 -28.1%
CCc1cccc(NC(=O)C2CCC(CNS(=O)(=O)c3ccc(Br)s3)CC2)c1 (stereo not drawn) 2.3%
Cc1ccc(NC(=O)c2cc(S(=O)(=O)N3CCc4ccccc43)cn2C)c(Cl)c1 -3.03%
CCC1=Nc2cc(C(=O)NCCN(CC)CC)ccc2Sc2ccccc21 10.5%
CCc1nc2cccnc2n1-c1ccc(CC(=O)Nc2cccc(C)c2C)cc1 -12.8%
CCc1ccc(-n2nc(CO)c(C(=O)NCCCc3ccccc3)n2)cc1 -7.71%
